Out of some 310,000 compounds screened, about 2,200 (0.71%) showed an effect of 50% or more. Effects have a minus sign here. The list shows a part of the results.
The compounds below were run against human ether-à-go-go-related gene (hERG) potassium channel (human, UniProt Q12809) (assay: primary screen, population patch clamp on CHO cells stably expressing hERG).
Chain of human ether-à-go-go-related gene (hERG) potassium channel (Q12809 whole entry, looked up): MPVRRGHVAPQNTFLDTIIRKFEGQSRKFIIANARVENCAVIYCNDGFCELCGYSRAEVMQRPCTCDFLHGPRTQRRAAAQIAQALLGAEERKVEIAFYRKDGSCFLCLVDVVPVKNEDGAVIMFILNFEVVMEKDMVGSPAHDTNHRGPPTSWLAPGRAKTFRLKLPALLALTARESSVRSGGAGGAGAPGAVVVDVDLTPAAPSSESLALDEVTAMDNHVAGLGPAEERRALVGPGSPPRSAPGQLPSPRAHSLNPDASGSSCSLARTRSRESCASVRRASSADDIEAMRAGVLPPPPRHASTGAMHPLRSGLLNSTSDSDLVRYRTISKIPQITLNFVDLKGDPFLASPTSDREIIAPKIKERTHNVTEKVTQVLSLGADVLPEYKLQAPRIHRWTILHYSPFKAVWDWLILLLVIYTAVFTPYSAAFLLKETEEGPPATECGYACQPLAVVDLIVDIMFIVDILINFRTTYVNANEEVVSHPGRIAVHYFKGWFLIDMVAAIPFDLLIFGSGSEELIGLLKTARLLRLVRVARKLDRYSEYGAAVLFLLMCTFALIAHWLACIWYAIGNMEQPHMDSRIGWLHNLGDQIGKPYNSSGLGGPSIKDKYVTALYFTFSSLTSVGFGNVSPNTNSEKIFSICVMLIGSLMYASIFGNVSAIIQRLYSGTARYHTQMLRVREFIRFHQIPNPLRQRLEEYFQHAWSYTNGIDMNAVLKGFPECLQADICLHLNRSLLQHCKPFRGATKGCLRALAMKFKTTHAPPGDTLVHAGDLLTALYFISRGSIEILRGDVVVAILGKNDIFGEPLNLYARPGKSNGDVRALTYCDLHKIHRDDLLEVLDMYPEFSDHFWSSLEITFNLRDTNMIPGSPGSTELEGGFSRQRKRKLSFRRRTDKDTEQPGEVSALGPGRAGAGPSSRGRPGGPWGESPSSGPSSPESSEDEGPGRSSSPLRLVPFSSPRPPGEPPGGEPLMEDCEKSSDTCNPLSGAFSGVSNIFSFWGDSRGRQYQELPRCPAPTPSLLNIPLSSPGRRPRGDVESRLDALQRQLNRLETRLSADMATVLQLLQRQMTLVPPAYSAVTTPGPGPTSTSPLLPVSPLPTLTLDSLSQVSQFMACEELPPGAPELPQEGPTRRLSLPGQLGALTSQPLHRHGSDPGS

Structure (SMILES)	hERG current change (%, negative = inhibition) at 1uM [%]
CC(=O)N(Cc1c(C#N)c2ccccc2n1C)c1ccccc1	5.03
COc1ccccc1C(=O)CC(=O)C(=O)Nc1cccc([N+](=O)[O-])c1C	4.51
CSc1cccc(NC(=O)CCc2ccccc2)c1	14.1
Cl.Clc1cccc(CN2C3=NCCCN3c3ccccc32)c1	-46.2
Cc1ccc(C)c(/C=N/NC(=S)NC(C)C)c1	20.6
CC(C)(C)C(=O)N1c2ccccc2CCc2ccccc21	14.1
CCOc1nc(NC(=O)NC(=O)c2ccccc2)nc(-c2ccccc2)n1	7.69
CC(C)c1ccc(C(=O)NN2CCOCC2)cc1	-1.52
CCCn1c(=O)c2sccc2n2c(CCCC(=O)NCC3CCCO3)nnc12 (stereo not drawn)	12
COc1ccc(-c2ccccc2)cc1NC(=O)c1ccncc1	11.2
CCCN1C(=O)/C(=c2\s/c(=C3\C=Cc4ccccc4N3CC)c(=O)n2-c2ccccc2)SC1=S	10.5
COc1ccc2c(c1)c1ncn(Cc3ccc(F)cc3)c(=O)c1n2C	5.9
CC(=O)Nc1ccc(OCCOc2ccc(NC(C)=O)cc2)cc1	6.09
Cc1[nH]c2ccccc2c1CCN	9.22
Cc1ccc(OCCSc2nc3ccccc3n2CCC(=O)O)cc1	15.5
Cc1nc2sc(-c3ccccc3)cc2c(=O)n1/N=C/N(C)C	6.86
C=CCn1c(SCc2nc3ccccc3[nH]2)nnc1-c1cccc(OC)c1	-0.942
COc1ccc(S(=O)(=O)c2c(O)c3ccc(C(=O)Nc4ccccc4Cl)cc3[nH]c2=O)cc1	2.62
CCOC(=O)c1ccc(NC(=O)c2nc(SC)ncc2Cl)cc1	11.2
COc1ccccc1/C=C/c1nc2ccc(OC(C)=O)cc2c(=O)o1	14.2
CCOc1cc(C2C3=C(CC(C)(C)CC3=O)OC3=C2C(=O)CC(C)(C)C3)cc([N+](=O)[O-])c1O	15.7
CCOC(=O)c1cc2c(cn1)[nH]c1ccccc12	6.89
Cc1ccc(Cl)cc1NC(=O)COC(=O)c1ccc(COc2ccc3c(C)cc(=O)oc3c2)cc1	9.59

Structure (SMILES)	hERG current change (%, negative = inhibition) at 1uM [%]
COc1ccc(/C(C)=C2\SC(=S)N(CCC(=O)O)C2=O)cc1	9.3
Cc1cc(=O)oc2c(C)c(OC3CCCCC3=O)ccc12 (stereo not drawn)	18.8
Cc1cc(C)n2cc(CSc3nnc(-c4ccccc4)o3)nc2n1	0.9
CCN(CC)C(=O)C1CCCN(Cc2nc(-c3cccs3)no2)C1 (stereo not drawn)	11.3
NC(=NCCc1ccc(Cl)cc1)NS(=O)(=O)c1ccc(F)cc1	10.6
CCOc1ccc(C(F)(F)F)cc1NC(=O)COc1ccc(C(F)(F)F)cc1[N+](=O)[O-]	15.8
Cc1cc(NC(=O)c2ccccc2F)nc2c1c(=O)oc1ccccc12	12.2
O=C(NNc1cccc(Cl)n1)Nc1ccccc1Cl	18.6
COc1ccc(F)cc1C(=O)C1CCCN(Cc2ccc(Oc3ncccn3)cc2)C1 (stereo not drawn)	-34.8
CC(C)CCNC(=O)CCCc1ccccc1	22.1
Cc1cc(-c2[nH]nc3c2C(c2cccc(O)c2)C(C#N)=C(N)O3)c(C)s1 (stereo not drawn)	-0.819
COc1cc(NC(=O)c2cc3c(=O)n(C)c4ccccc4c3n2C)cc(OC)c1OC	11.8
COCCn1c(SCC(=O)NC2(C#N)CCCCC2)nc2ccccc2c1=O	-12.8
Cc1ccc(SCC(=O)Nc2cccc(NC(=O)c3ccco3)c2)cc1	11.4
O=C(C1CC(c2ccccc2O)=NO1)N1CCC2(CC1)OCCO2 (stereo not drawn)	9.19
CN(CC(=O)NCCCc1ccccc1)Cc1ccc(Br)cc1	10.2
COc1ccc(C)cc1NC(=O)C(OC(=O)c1cc(C)oc1C)c1ccccc1 (stereo not drawn)	7.61
CCOc1ccccc1NC(=O)N1CCc2ccccc2C1	18.1
O=C1CCCC2=C1C(c1ccccc1)CC(=O)N2c1ccc(F)cc1F (stereo not drawn)	6.84
Cn1c(=O)oc2cc(S(=O)(=O)NCc3ccccc3)ccc21	12.8
Cc1ccc(C(=O)N2CCN(c3ccccn3)CC2)cc1[N+](=O)[O-]	8.77
O=C1Oc2ccccc2C(=O)/C1=C/c1ccccc1O	5.07
CC(=O)Nc1nn(C)c2nc3cc(C)ccc3cc12	8.35

Structure (SMILES)	hERG current change (%, negative = inhibition) at 1uM [%]
Cc1ccc(C2Nc3cccc4cccc(c34)N2)s1	5.44
COc1ccc(OC)c2sc(N3CCN(C(=O)c4ccc([N+](=O)[O-])s4)CC3)nc12	-9.5
Cn1c(N)cc(=O)n(Cc2ccccc2)c1=O	11.1
CCC(=O)N1C(Cc2ccccc2)COC1(C)C (stereo not drawn)	7.04
COCc1cc(C)nc(N2CCCCC2)c1C#N	13.1
Cc1ccc(NC(=O)c2ccccc2Cl)c(Cl)c1	7.11
COc1ccc(NC(=O)/C(C#N)=C/c2ccc(OCCN3CCOCC3)c(OC)c2)c(OC)c1	13.2
COc1cc(C)c(Cl)c(C)c1S(=O)(=O)NC1CC(C)(C)NC(C)(C)C1	12.7
O=C(CN1CCOCC1)Nc1ccccc1C(=O)Nc1ccccc1	7.99
CCOC(=O)c1sc(NC(=O)CSc2nc(-c3ccco3)cc(C(F)(F)F)n2)c(C(=O)OC)c1C	11.4
O=C(O)C(=O)O.c1csc(-c2nnc(N3CCCCCC3)c3ccccc23)c1	-0.203
Cc1ccc(NC(=S)NCCSc2ccc(Cl)cc2)c(C)c1	12.6
OCC1CCCCN1C(=S)NCc1ccco1 (stereo not drawn)	-3.9
Cn1c(=O)[nH]c(=O)c2c1nc(N1CCN(Cc3ccccc3)CC1)n2CCSc1ncccn1	6.83
O=C(COC(=O)C1CCN(c2ccc(C(F)(F)F)cn2)CC1)NCc1ccc(F)cc1	8.96
COC(=O)CCCC(=O)Nc1ccc(Br)cc1	16.3
Cc1ccccc1OCc1occc1C(=O)Nc1cccc(-n2cnnn2)c1	5.69
C=C(C)CSc1nnc([C@@H]2CCCN2C(=O)OC(C)(C)C)o1	15.5
CCc1noc(C)c1C(=O)N1CCN(S(=O)(=O)c2ccc(Cl)cc2)CC1	3.82
CCCc1nc2ccccc2c(=O)n1-c1ccc(OC)cc1	8.32
COc1cc2c(cc1OC)C(CC#N)=NC(C)(C)C2	16.1
O=C(Cn1cc[n+](Cc2ccccc2)c1)c1ccc([N+](=O)[O-])cc1.[Br-]	-0.203
C=CCn1c(CCNC(=O)c2ccco2)nc2ccccc21	9.14

Structure (SMILES)	hERG current change (%, negative = inhibition) at 1uM [%]
Cc1cccc(NC(=O)c2cc(NC(=O)c3ccco3)ccc2N2CCCCC2)c1	14.8
CCOC(=O)C(C)n1cnc2c(nnn2-c2ccc(C)cc2)c1=O (stereo not drawn)	-2.62
CCCC(=O)Nc1ccc(Sc2ccc([N+](=O)[O-])cc2)cc1	8.28
CCN(CC)C1CC(=O)N(c2cccc(C)c2)C1=O (stereo not drawn)	0.195
Cn1cc(-c2ccccc2C(=O)O)c(=O)c2cc(Cl)ccc21	13.1
O=C(CNC(=O)c1ccc(-c2ccccc2)cc1)OCc1c(Cl)cccc1Cl	5.16
Br.N=C1c2ccccc2CN1NC(=O)C1CC1	7.71
CCN(CC)S(=O)(=O)c1ccc2c(c1)nc(CCC(=O)Nc1ccc3c(c1)OCO3)n2C	9.95
COc1cc(CNC(=O)c2ccc(Cn3nc(C)c(Cl)c3C)o2)cc(OC)c1	11.2
O=C(NCc1ccco1)/C(=C\c1cccs1)NC(=O)c1ccsc1	3.9
COc1ccc(C(=O)Nc2cccc(-c3cnc4ccccc4n3)c2)cc1	3.38
COC(=O)C1(C)NC(c2ccc(O)cc2)C2C(=O)N(c3ccccc3)C(=O)C21 (stereo not drawn)	12.3
COc1cc(C(=O)N(Cc2cccc(Cl)c2)C2CCS(=O)(=O)C2)cc(OC)c1OC (stereo not drawn)	4.71
CCOc1ccccc1NC(=O)COC(=O)Cc1ccsc1	6.88
Cc1ccc(C(C)C)c(OCC#CCN2CCOCC2)c1.O=C(O)C(=O)O	14
CCOC(=O)C(CC)Sc1nc2c(c(=O)[nH]c(=O)n2C)n1CCc1ccccc1 (stereo not drawn)	-30.9
CCN(CC)S(=O)(=O)c1ccc(C)c(NC(=O)COC(=O)CNC(=O)c2ccc(C(C)(C)C)cc2)c1	15
CC(=O)c1c(C)nc2ccc(Br)cc2c1C(=O)O	16.5
Cc1cc(=O)oc2cc(OC(C)C)ccc12	14.6
COc1ccc(/C=C/C(=O)NC(=S)Nc2cc([N+](=O)[O-])ccc2O)cc1OC	14.3
CCO.Cc1cc(C)c2nc(NC(=O)c3cccc(S(=O)(=O)N4CCc5ccccc54)c3)sc2c1	11
